Test results: PubChem BioAssay AID686979 (National Center for Advancing Translational Sciences (NCATS), 2013)
About 50,000 (12%) of roughly 420,000 compounds were called active. The shares of active, inactive and inconclusive entries below differ from those in the screen. Calls follow the shape of the dose curve; as a rule, active = well fitted inhibition curve with a large enough effect; inconclusive = small, poorly fitted or top-dose-only effect; inactive = flat fitted curve, though single readings scatter. Potencies of inconclusive entries are left out as doubtful fits.

assay: qHTS for Inhibitors of human tyrosyl-DNA phosphodiesterase 1 (TDP1): qHTS in cells in presence of CPT; details: chicken DT40 Tdp1-/-;hTDP1 cells + 20 nM CPT, ATP luminescence, 48 h; series mostly up to 46.2 µM; also: nearly all actives have a fitted effect of over 55% in size
In short: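 Cell growth measured by CellTiter-Glo luminescence after a minimum 48 h, 37 C compound exposure with 20 nM CPT in Tdp1-knockout DT40 cells stably expressing hTDP1, seeded 400/well; qHTS titration format.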
Potency is read from the fitted curve at half-maximal effect; tags tell the direction and shape of the fitted curve.

| SMILES | Potency |
| --- | --- |
| Cc1ccc(C(=O)NCCSCc2ccccc2)cc1[N+](=O)[O-] | inconclusive [inhibitor, single point] |
| COc1ccc(C(=O)NCC(c2ccccc2)N2CCCC2)cc1S(=O)(=O)N1CCOCC1 (stereo not given) | inactive |
| O=C(NC1CCCC1)C(c1ccncc1)N(Cc1ccccc1)C(=O)c1ccc(-c2ccccc2)[nH]1 (stereo not given) | active: 20.6 µM |
| O=C(O)c1cccc(C(=O)O)c1Br | inactive |
| O=C(Nc1ccc(Cc2ccncc2)cc1)c1ccc(S(=O)(=O)N2CCCC2)cc1 | active: 13 µM |
| CC(=O)Nc1nc(N(C)C)nc(N(C)C)n1 | inactive |
| O=C(CCS(=O)(=O)c1cccc2nonc12)Nc1ccc(Br)cc1 | inactive |
| O=c1[nH]c(SCc2ccc([N+](=O)[O-])cc2)nc2c1CCCC2 | inconclusive [inhibitor, single point] |
| CC(C)CCNC(=O)C1CCN(S(=O)(=O)c2ccc3nc4c(c(C(=O)O)c3c2)CCCCC4)CC1 | inactive |
| Cc1ccccc1NC(=O)CSc1ccc(-c2cccs2)nn1 | inconclusive [inhibitor, single point] |
| CCCC(C)C(=O)Nc1nc(C)c(-c2csc(Nc3cc(OC)ccc3OC)n2)s1 (stereo not given) | active: 4.61 µM |
| COc1cc(/C=C(/C#N)C(=O)Nc2ccc(Cl)cc2)ccc1Oc1nc(Cl)ncc1F | active: 9.2 µM |
| CNC(=S)N1N=C(c2ccc(C)cc2)CC1c1ccc(OC)c(OC)c1 (stereo not given) | inconclusive [inhibitor, partial curve, poor fit] |
| COc1ccc(C(CNC(=O)COc2ccc(Cl)cc2C)N2CCCCC2)cc1 (stereo not given) | inconclusive [inhibitor, single point] |
| Cc1ccccc1-c1nc(P(=O)(c2ccccc2)c2ccccc2)c(N2CCOCC2)o1 | inconclusive [inhibitor, single point] |
| C/C(=N\NC(=O)C1CCCC1)c1ccc(Cl)cc1Cl | inconclusive [inhibitor, partial curve] |
| CC(=O)c1ccc(OCc2c(-c3ccccc3)nnn2CC(=O)NS(=O)(=O)c2ccc(C)cc2)cc1 | inconclusive [inhibitor, full curve] |
| c1cc2c(cc1C1CCCCC1)c1c3n2CCN[C@H]3CCC1 | active: 10.6 µM |
| Cc1ccc(NC(=O)c2ccc(OCc3c(C)noc3C)cc2)nc1 | inconclusive [inhibitor, single point] |
| Cc1ncn(-c2ccccc2)c1-c1ccccc1 | inconclusive [inhibitor, single point] |
